The campaign covered roughly 110,000 compounds. About 230 (0.21%) showed an effect of 50% or more. The list shows a part of the results.
target: DPAP1 (Plasmodium falciparum, UniProt Q8IIJ9); test: primary screen, percent inhibition; read by cleavage of a fluorogenic dipeptide substrate; higher = more effect of the substance; set-up: species or system P. falciparum D10 trophozoite lysates; single well
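Note: 30 min substrate incubation versus DMSO and 10 µM JCP410 controls.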

Chain of DPAP1 (Q8IIJ9 whole entry, looked up): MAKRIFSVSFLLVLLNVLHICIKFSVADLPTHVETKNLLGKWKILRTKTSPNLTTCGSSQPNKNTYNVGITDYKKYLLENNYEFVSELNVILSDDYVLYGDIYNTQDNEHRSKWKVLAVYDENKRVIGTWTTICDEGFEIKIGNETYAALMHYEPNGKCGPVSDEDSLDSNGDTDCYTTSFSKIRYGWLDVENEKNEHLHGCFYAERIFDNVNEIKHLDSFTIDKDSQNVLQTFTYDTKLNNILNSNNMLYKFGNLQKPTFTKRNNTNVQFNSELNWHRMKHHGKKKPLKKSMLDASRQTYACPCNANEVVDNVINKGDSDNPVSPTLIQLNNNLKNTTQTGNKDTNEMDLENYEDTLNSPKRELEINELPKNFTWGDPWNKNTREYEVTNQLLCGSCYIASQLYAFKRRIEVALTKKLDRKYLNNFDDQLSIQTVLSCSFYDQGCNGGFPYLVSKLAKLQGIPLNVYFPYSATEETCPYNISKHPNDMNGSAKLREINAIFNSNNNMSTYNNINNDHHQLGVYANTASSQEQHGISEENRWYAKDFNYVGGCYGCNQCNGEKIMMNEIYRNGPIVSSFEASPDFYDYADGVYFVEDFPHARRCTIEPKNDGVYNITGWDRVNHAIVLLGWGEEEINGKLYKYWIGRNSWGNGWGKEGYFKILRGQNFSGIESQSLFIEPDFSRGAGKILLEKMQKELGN

| SMILES | % Inhibition @ 10 uM |
| --- | --- |
| CC[n+]1c(C)n(CC(O)COc2ccccc2C)c2ccccc21 (stereo not drawn) | 0.147% |
| CN(CCc1ccccn1)Cc1cccc(Cl)c1 | -1.05% |
| Cc1ccc(CC(=O)Nc2nc3c(s2)C(=O)CC(C)(C)C3)cc1 | -2.8% |
| O=C(NCCCN1CCCC1)C1CCN(Cc2cnn(-c3ccccc3)c2-n2cccc2)CC1 | -1.08% |
| O=S(=O)(c1ccc2c(c1)Cc1ccccc1-2)N1CCSC1 | -3.26% |
| O=C(O)CCc1c(-c2ccccc2)cc2ccccn12 | 0.315% |
| COc1cccc(CN2CCN(Cc3cc(OC)cc(OC)c3)CC2)c1 | -5.26% |
| O=S(=O)(Nc1cc(Cl)ccc1Cl)c1cc(Cl)ccc1Cl | 5.09% |
| Cc1ccc(C)c(OCC(=O)Nc2nc3ccccc3s2)c1 | 2.17% |
| Cc1ccc(CCNC(=O)C2CCCN(Cc3nc(-c4ccc(Cl)cc4)oc3C)C2)cc1 (stereo not drawn) | -2.85% |
| CCOC(=O)N1CCN(C(=O)CSc2nnc(-c3ccccc3C)o2)CC1 | -1.67% |
| CCCOc1ccc(Cc2nn3c(=O)/c(=C\c4ccccc4F)sc3nc2=O)cc1 | 1.23% |
| CSc1nc2n(n1)C(c1cccc(Br)c1)C1=C(O)CCCC1=N2 (stereo not drawn) | -5.25% |
| Cc1c(C(=O)O)oc2ccc3c(c12)C(=O)CC(C)(c1ccc(F)cc1)O3 (stereo not drawn) | -3.53% |
| Cc1ccnc(NC(=O)Cc2noc3ccccc23)c1 | 1.51% |
| C=CCOc1ccc(/C=C2/SC(N3CCOCC3)=NC2=O)cc1 | -2.88% |
| CCCCCn1cnc2sc(CC)cc2c1=O | -12.6% |
| O=C(Cn1ncc2c3ccccc3n(Cc3ccccc3)c2c1=O)NCCCc1ccccc1 | 0.137% |
| O=C(c1ccco1)N1CCN(C(=O)C2c3ccccc3C(=O)N3CCc4ccccc4C23)CC1 (stereo not drawn) | 2.91% |
| COc1ccc(N(CC(=O)Nc2ccccc2F)S(C)(=O)=O)cc1 | -3.25% |
| Brc1ccc(OCCCCN2CCCC2)cc1 | -2.12% |
| Cc1ccc(O)c(C(CC(=O)NC2CCCCC2)c2ccccc2)c1 (stereo not drawn) | -0.0626% |
| N#CC1=C(N)Oc2cc(N)ccc2C1c1cccc(C(F)(F)F)c1 (stereo not drawn) | 6.8% |
| CCCc1nc2c(=O)n(C)c(=O)nc-2n(C)n1 | 3.77% |
| COc1cccc(OCCOCCN2CCCC2)c1 | -0.817% |
| CCCOc1ccccc1/C=c1\sc2nc(C3COc4ccccc4O3)nn2c1=O (stereo not drawn) | 1.91% |

| SMILES | % Inhibition @ 10 uM |
| --- | --- |
| O=c1c2cc3c(=O)n(-c4ccccn4)c(=O)c3cc2c(=O)n1-c1ccccn1 | 3.34% |
| CCOc1ccc(-c2cc(C(=O)NC(C)C)c3ccccc3n2)cc1 | 0.795% |
| CCCn1c(CCCNC(=O)COC)nc2ccccc21 | 0.121% |
| OCC1CCCN(Cc2ccc(Br)o2)C1 (stereo not drawn) | 2.65% |
| Nc1ccc(C(c2ccccc2)c2ccc(N)c(Cl)c2)cc1Cl | 11.7% |
| N#CC1(NC(=O)[C@H](CC2CCCCC2)N[C@H](c2ccco2)C(F)(F)F)CC1 | -1.5% |
| C=CCSc1nc(O)c2cnn(-c3ccccc3)c2n1 | -0.00718% |
| Cc1c(C(c2cccc(Br)c2)c2c(C)n(C)n(-c3ccccc3)c2=O)c(=O)n(-c2ccccc2)n1C | 0.467% |
| CC(Sc1nnnn1-c1ccccc1)C(=O)NC(c1ccccc1)c1ccccc1 (stereo not drawn) | -4.91% |
| CC1NC2(C(=O)N(C/C=C\c3ccccc3)c3ccccc32)C2C(=O)N(Cc3ccccc3)C(=O)C12 (stereo not drawn) | -1.57% |
| NS(=O)(=O)c1ccc(NC(=O)Nc2ccc(Cl)c(Cl)c2)cc1 | -0.333% |
| COc1ccc(CCNC(=O)CN2C(=O)c3ccccc3S2(=O)=O)cc1OC | 8.68% |
| O=C(NCCCCc1ccccc1)NC1CCCCC1 | 1.88% |
| Cc1ccccc1N1CCN(C(=O)c2ccccc2C(=O)O)CC1 | 5.44% |
| Cc1sc(NC(=O)Cn2nc(C(F)(F)F)c(Br)c2C)c(C(N)=O)c1C | 0.83% |
| COc1ccc(CN2CCN(Cc3ccccc3C)CC2)c(OC)c1OC | -3.13% |
| CC(C)(C)c1ccc(S(=O)(=O)NCc2ccc(C(=O)NCc3ccccn3)cc2)cc1 | -3.41% |
| Cc1ccc2c(N)c(C(=O)c3ccccc3)sc2n1 | -2% |
| C=CCN1CCN(c2ccncc2S(=O)(=O)NC)CC1 | 0.245% |
| CCOc1ccc(-c2nnc(SCC(=O)N3CCOCC3)o2)cc1 | 1.3% |
| Cc1nn(CC(=O)NCCCc2ccccc2)c(=O)c2cc3sccc3n12 | 1.8% |
| CSc1ccc(NC2CCN(Cc3ccccc3)CC2)cc1 | -9.49% |
| CCN(CC)C1=NC(C(F)(F)F)(C(F)(F)F)N=C(c2ccc(OC)cc2)O1 | -3.53% |
| CC(NC(=O)c1cccc(F)c1)C(c1cccs1)N1CCN(C)CC1 (stereo not drawn) | 2.34% |
| Cn1ncc(Br)c1C(=O)N1CCN(C(=O)c2ccco2)CC1 | 12.2% |
| CC(=O)Nc1cccc2c1C(=O)N(c1ccccc1C)C2=O | -1.96% |

| SMILES | % Inhibition @ 10 uM |
| --- | --- |
| CC1CCCN(c2ncnc3c2cnn3-c2ccc(Cl)cc2)C1 (stereo not drawn) | -7.06% |
| Cc1cc(C)c(OCCOCCN2CCNCC2)c(C)c1 | -4.14% |
| COCc1cc(C2SCC(=O)Nc3c2c(O)nn3C2CCOC(C)(C)C2)ccc1OC (stereo not drawn) | -5.91% |
| Cc1ccsc1CN1CCCN(C)CC1 | 4.57% |
| O=C(/C=C/c1ccccc1)NCC1CCCO1 (stereo not drawn) | -0.414% |
| CCOc1ccccc1CNCc1c(C(=O)O)n(CC)c2cc(C)ccc12 | -3.6% |
| Cc1c(CN2CC=C(c3ccc(F)cc3)CC2)c(=O)n(-c2ccccc2)n1C | -4.95% |
| Cc1[nH]c2ccccc2c1C(=O)/C=C/c1ccc(Br)cc1 | 13.6% |
| O=C(Nc1ccc(F)cc1)c1ccccc1C(=O)OCC(Cl)=C(Cl)Cl | 1.7% |
| COc1ccc(C(=O)c2oc3ccccc3c2NC(=O)c2ccccc2F)cc1 | -1.11% |
| COc1cc(CN2CCC3(C=Cc4ccccc43)CC2)cc(OC)c1O | -3.42% |
| O=C(NC1CCN(Cc2ccccc2)CC1)C1CCCN(c2ncnc3c2nc2n3CCCCC2)C1 (stereo not drawn) | 1.19% |
| CCOc1ccc(NC(=O)c2ccc(Br)o2)cc1 | -2.09% |
| CCC(C)C(=O)Nc1ccc(-c2nc3ccccc3[nH]2)cc1 (stereo not drawn) | -4.7% |
| COc1ccc2c(c1)c(=O)oc1cc3oc4c(c3cc12)CCCC4 | 2.54% |
| CC(C)CCNC(=O)CSc1nc2cccnc2[nH]1 | -1.99% |
| NCC1c2ccccc2C=Cc2ccc(Cl)cc21 (stereo not drawn) | -6.37% |
| CCC(=O)NC(C)c1nc2ccccc2n1Cc1cc(C)ccc1C (stereo not drawn) | 2.83% |
| O=C(Nc1cccc(O)c1)c1ccc(Oc2ccc(C(=O)Nc3cccc(O)c3)cc2)cc1 | -1.2% |
| Cc1nn(-c2ccccc2)c(-n2cccc2)c1C(=O)NCC(C)c1ccccc1 (stereo not drawn) | 0.137% |
| CCOc1ccc(N2C(=O)c3ccccc3NC2c2cc(OC)c(OCC(N)=O)cc2Cl)cc1 (stereo not drawn) | -3.5% |
| C=CCNC(=O)c1c(C)c(C(=O)OCC)n(C)c1C | 1.72% |
| CN(CCc1ccccc1)Cc1ccccn1 | -3.37% |
| Cn1ncc(Br)c1C(=O)NCc1ccc2c(c1)OCO2 | -2.84% |
| NC(=O)NC(=O)CSc1ncnc2sc3c(c12)CCCC3 | 5.29% |
| CCC(=O)Nc1ccc(OCc2nc3ccccc3s2)cc1 | -1.82% |

| SMILES | % Inhibition @ 10 uM |
| --- | --- |
| Cn1cc(CNC(=O)c2cc(-c3ccccc3)nc3ccc(Br)cc23)cn1 | -1.95% |
| COc1ccc(C2=NC(=O)/C(=C\c3cccc(F)c3)O2)cc1 | 0.413% |
| COc1cccc(OCCCCN2CCCC2)c1 | -3.42% |
| C1CSC2(N1)C1CC3CC2CC(C1)C31NCCS1 (stereo not drawn) | 1.29% |
| CCCNC(=O)c1ccc(C2SCC(=O)N2CCc2ccccc2)cc1 (stereo not drawn) | -2.76% |
| Cc1cc2oc(=O)cc(C)c2c2occ(-c3ccc(F)cc3)c12 | -1.15% |
| COc1ccc(OC)c(C2C(C#N)=C(N)Oc3nc(C)nc(O)c32)c1 (stereo not drawn) | -1.22% |
| COc1ccc(OCCn2cc(C(C)=O)c3ccccc32)cc1 | -3.5% |
| CC(=O)Nc1ccc(S(=O)(=O)N(C2CCCC2)C2CCCC2)cc1 | 7.15% |
| CCc1nn(CC(=O)NCCCN(C)Cc2ccccc2)c(=O)c2cc3occc3n12 | 1.38% |
| COc1cc(F)c(C[C@H](NC(=O)OCc2ccccc2)C(=O)NCC#N)c(F)c1 | -0.406% |
| CC1CCN(S(=O)(=O)c2cc(Cl)ccc2Br)CC1 | -6.08% |
| CCOC(=O)c1cc2c(=O)n3ccccc3nc2n(CC2CCCO2)/c1=N/C(=O)/C=C/c1ccccc1 (stereo not drawn) | -5.57% |
| CN(Cc1ccco1)S(=O)(=O)c1nnc(NC(=O)c2cccs2)s1 | -0.959% |
| Clc1cccc(OCCN2CCCC2)c1 | 0.565% |
| COc1ccc(C(=O)NC(Cc2ccccc2)c2ccc3c(c2)OCCCO3)cc1 (stereo not drawn) | -1.28% |
| Cc1cc(N2C(=O)c3cc(Cl)c(Cl)cc3C2=O)no1 | 0.408% |
| CCCCc1nnc2sc(NC(=O)COc3ccc(C)cc3)nn12 | 1.39% |
| COc1ccccc1CNC(=O)CCCn1nc(C)n2ccnc2c1=O | 3.3% |
| CC1=C(CCN2CCCCC2CO)C(C)(C)CCC1 (stereo not drawn) | -0.0648% |
| COc1ccc(CNC2CCN(C)CC2)c(OC)c1 | -2.21% |
| CC(C)(C)C(=O)NCCc1nc2ccccc2n1CC(=O)c1ccccc1 | -2.01% |
| Cc1cc(=O)n(Cc2cc(=O)n3ccccc3n2)c2c1c(C)nn2-c1cccc(F)c1 | 1.81% |
| COc1ccc(NC(=O)CN(c2cccc3ccccc23)S(C)(=O)=O)cc1Cl | -4.13% |
